# Source: PubChem BioAssay (NCATS)
# Inconclusive means that the source gave no clear call. Such entries were picked first, then a sample of the others. For part of these data: Where the call is inconclusive, the potency comes from a doubtful curve fit. For part of these data: “Side channel” marks fits to a control or component signal instead of the main read-out. Calls of active or inactive are those of the source. Unless noted, calls follow the shape of the dose curve; as a rule, active = well fitted curve in the direction sought with a large enough effect; inconclusive = small, poorly fitted or top-dose-only effect, or another doubt; inactive = no such curve, though single readings can be large; an effect the other way counts as inactive or inconclusive.
# Experiments:
# [1] = qHTS Assay for Identification of Small Molecule Agonists for Hypoxia Response Element Signaling Pathway (AID 914; active = well fitted activation curve with a large enough effect in the signal ratio, with a control signal flat, not every such curve was filed as active; inconclusive = small, poorly fitted or top-dose-only effect, or effect the other way, or a change in a side signal; the % refers to the signal ratio; also: potency is read from the fitted curve at half-maximal effect); details: ME-180 HRE-bla reporter, beta-lactamase ratio, CoCl2, 17 h; activation: active compounds read high
# Outline: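 ME-180 cells carrying an HRE-driven beta-lactamase reporter were treated with compounds in a titration series plus an EC50 level of CoCl2 for 17 h at 37 degrees Celsius; CCF4 readout as the 460nm/530nm ratio gave AC50 values.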
# [2] = target: M-phase phosphoprotein 8 (Homo sapiens) (UniProt Q99549); assay: qHTS Validation Assay for Inhibitors for MPP8 Chromodomain Interactions with Methylated Histone Tails (AID 488949); details: AlphaScreen MPP8 binding to H3K9me3 peptide; activity change, negative = inhibition: at 57.1 µM (top of the series) unless noted; also: potency is read from the fitted curve at half-maximal effect; nearly all actives have a fitted effect of over 55% in size
# Outline: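 MPP8 (50 nM) was pre-bound to 50 nM biotinylated H3(1-18)K9me3 peptide in PBS pH 7.4 with 0.01% Tween-20. Compounds were then added for 30 min at room temperature, and complex disruption was read by AlphaScreen with streptavidin donor and nickel-chelate acceptor beads.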
# [3] = qHTS for Activators of Parkin Expression: LOPAC Validation Assay (FLuc Reporter) (AID 720573; also: potency is read from the fitted curve at half-maximal effect;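 as to activation: 0% = DMSO and 100% = positive control compounds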)
# Outline: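 Neuronal cell line stably expressing FLuc/NLuc coincidence reporter under the Parkin promoter, 1,500 cells/well, dosed 24 h after seeding in 7-point series for 24 h at 37 C. FLuc luminescence read; normalized to DMSO and positive control (100%).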
# [4] = Primary qHTS for inhibitors of La Crosse Virus (LACV) - induced cell death in SH-SY5Y cells (AID 1508616); also: potency is read from the fitted curve at half-maximal effect;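 as to activity change: top concentration of the series differs between compounds; 0% = infected DMSO wells and 100% = uninfected DMSO wells; higher means more rescue of cells from virus-induced death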
# Outline: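 Screening measures cell viability in LACV-infected SH-SY5Y cultures. Compound was added before virus (0.01 MOI), and ATP was detected by luminescence 6 days later.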
# [5] = target: Papain (Carica papaya) (UniProt P00784); assay: Primary qHTS assay for inhibitors of the protease papain (AID 1645873);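 also: papain turnover of Z-FR-AMC read as the AMC fluorescence gain over 10 min; potency is read from the fitted curve at half-maximal effect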
# [6] = High Content Imaging Cell-Based qHTS for Inhibitors of the mTORC1 Signaling Pathway in MEF Cells (AID 2667); also: potency is read from the fitted curve at half-maximal effect
# Outline: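 Fixed-cell imaging of phospho-S6 (Ser235/236, Alexa-488) after 24 hrs of compound treatment at 37 degree Celsius. Signal was normalized to Hoechst, and thresholds from the highest and lowest wells split cells into % active versus % non-active.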
# [7] = target: Transient receptor potential cation channel subfamily V member 1 (Homo sapiens) (UniProt Q8NER1); assay: HTS Assay for Compounds that Act as Enhancers of the Vanilloid Receptor 1 (AID 488979); also: potency is read from the fitted curve at half-maximal effect
# Outline: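 TRPV1-expressing cells loaded with Fluo-8 calcium dye; compounds added and calcium influx read kinetically for 3 min (agonist phase), then capsaicin at EC20 added and read 2 min more for enhancement. Fluorescence ex 480/em 520 nm.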
# [8] = target: Tyrosine-protein phosphatase non-receptor type substrate 1 (Homo sapiens) + Leukocyte surface antigen CD47 (Homo sapiens) (UniProt P78324+Q08722); assay: CD47-SIRPalpha protein protein interaction - HTRF assay qHTS validation (AID 1347058; active = well fitted curve in the direction sought with a large enough effect in the signal ratio, not every such curve was filed as active; inconclusive = small, poorly fitted or top-dose-only effect, or effect the other way, or a change in a side signal; inactive = no such curve, though single readings can be large or run the other way; the % refers to the signal ratio; also: potency is read from the fitted curve at half-maximal effect; as to activity change, negative = inhibition: 0% is about no effect)
# Outline: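 Soluble extracellular domains (6His-CD47, Avi-tag-biotinylated SIRPalpha) in PBS pH 7.4 with 0.05% IGEPAL CA-630. Compounds were preincubated 30 min at RT with CD47 and anti-His-Eu, then SIRPalpha and SAV-XL665 were added. TR-FRET 665/615 ratio.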
# [9] = qHTS for Activators of Parkin Expression: LOPAC Validation Assay (NLuc Reporter) (AID 720572; also: potency is read from the fitted curve at half-maximal effect;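 as to activation: 0% = DMSO and 100% = positive control compound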)
# Outline: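 Cells harboring the Parkin-promoter coincidence reporter were treated for 24 h at seven concentrations. NLuc output was measured sequentially after the FLuc channel and scaled between DMSO and positive control values.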
# [10] = qHTS Validation Assay to Find Inhibitors of Chronic Active B-Cell Receptor Signaling (AID 485345; active = well fitted curve in the direction sought with a large enough effect in the main read-out, with a control signal flat, not every such curve was filed as active; inconclusive = small, poorly fitted or top-dose-only effect, or effect the other way, or a change in a side signal; inactive = no such curve, though single readings can be large or run the other way;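 also: 0% = untreated basal cells and 100% = 10 µM MG-132 proteasome inhibitor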); details: ABC-DLBCL cells, chronic BCR signaling reporter; activity change: CBG luciferase, at 46.1 µM (top of the series)
# Outline: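 TMD8 ABC-DLBCL cells with dox-inducible green luciferase–IκBα fusion and red native luciferase; compounds 46 uM–3 nM, 4 h at 37C with doxycycline in 0.5% FBS IMDM. Green/red ratio normalized to basal and 10 uM MG-132.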
# [11] = target: D(1A) dopamine receptor (Homo sapiens) (UniProt P21728); assay: HTS Assay for Allosteric Agonists of the Human D1 Dopamine Receptor: Primary Screen for Potentiators (AID 488982); also: potency is read from the fitted curve at half-maximal effect
# Outline: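 Tetracycline-induced HEK293 T-REx cells force-coupled to calcium signalling were incubated overnight at 30 C and dye-loaded at room temperature. Calcium flux over 180 s after compound addition flagged agonists; a further 180 s read after EC20 dopamine flagged potentiators.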
# [12] = Validation screen for small molecules that induce DNA re-replication in SW480 colon adenocarcinoma cells (AID 504364); also: potency is read from the fitted curve at half-maximal effect
# Outline: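 Hoechst-stained SW480 nuclei, imaged at 405 nm excitation after 48 hr compound exposure, were counted for elevated DNA content as the re-replication signal.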
# [13] = target: Peptidyl-prolyl cis-trans isomerase NIMA-interacting 1 (Homo sapiens) (UniProt Q13526); assay: qHTS Validation Assay to Find Inhibitors of Pin1 (AID 504536; active = well fitted inhibition curve with a large enough effect in the polarisation, with a control signal flat, not every such curve was filed as active; inconclusive = small, poorly fitted or top-dose-only effect, or effect the other way; the % refers to the polarisation; also: potency is read from the fitted curve at half-maximal effect)
# Outline: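 Fluorescence polarization competition: compounds (titration) displace HiFluor-488-labeled Pin1-1b peptide from Pin1 (0.3 uM final) in pH 7.5 HEPES buffer with DTT, 10 min at room temperature; %Activity normalized to no-enzyme wells, curves fitted.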
# [14] = target: Calcium and integrin-binding protein 1 (Homo sapiens) (UniProt Q99828); assay: Validation qHTS for Identification of Calcium Integrin Binding protein 1 (CIB1) Competitor (AID 1508618); also: potency is read from the fitted curve at half-maximal effect; as to activity change, negative = inhibition: % is scaled to controls: 0 for no effect and ±100 for the full control effect
# Outline: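 CIB1-GST (1 uM final) in 5 mM HEPES pH 7.4, 125 mM NaCl, 5 mM CaCl2, 0.01% Tween20 was preincubated 15 min at room temperature with compound (up to 114 uM), then FITC-alphaIIb peptide (100 nM) added for 15 min; fluorescence polarization read.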
# [15] = qHTS to identify inhibitors of the type 1 interferon - major histocompatibility complex class I in skeletal muscle: primary screen against the NCATS LOPAC collection (AID 1347405); details: iHSKM muscle cells, IFN-b-induced MHC-I HiBiT luminescence, 24 h; activity change, negative = inhibition: at 45.9 µM (top of the series);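 also: human myoblasts with HiBiT tag on endogenous HLA-B stimulated by IFN-beta; lytic HiBiT luminescence reporting HLA-B protein level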; also: potency is read from the fitted curve at half-maximal effect; as to activity change, negative = inhibition: % is scaled to controls: 0 for no effect and ±100 for the full control effect
# Outline: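 IFN-beta-stimulated (4 ng/ml) HLA-B HiBiT knock-in myoblasts, compound-treated 24 hrs up to 46 uM final; signal via LgBiT complementation and furimazine luminescence.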
# [16] = Validation of Assay for Modulators of Lamin A Splicing (AID 1459; active = well fitted curve in the direction sought with a large enough effect in the signal ratio; inconclusive = small, poorly fitted or top-dose-only effect, or effect the other way, or a change in a side signal; inactive = no such curve, though single readings can be large or run the other way; the % refers to the signal ratio; also: potency is read from the fitted curve at half-maximal effect;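 as to ratio change, both ways: cells exposed to compound for two days before reading; 0% is about no effect; ratio rise marks activators and ratio drop marks inhibitors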); details: Lamin A splicing dual RFP/GFP fluorescence reporter; Potency: ratio unless noted; ratio change, both ways: at 9.22 µM unless noted
# Outline: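 S3 HeLa stably expressing lamin A-EGFP splicing minigene and DsRed2, 600 cells/well in Opti-MEM with 2% FBS, treated 48 h at 37C; laser-scanning cytometry gives GFP/RFP total intensity ratio; ancitabine positive control, 0.5% DMSO vehicle.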
# [17] = target: Thioredoxin reductase 1, cytoplasmic (Rattus norvegicus) (UniProt O89049); assay: qHTS Assay for Substrates of Mammalian Selenoprotein Thioredoxin Reductase 1 (TrxR1) (AID 488772);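 also: potency is read from the fitted curve at half-maximal effect; a drop in NADPH fluorescence below the no-compound background marks a TrxR1 substrate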
# Outline: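 In this dual-purpose format, potential substrates are identified from the first fluorescence read after selenite addition, not from the 8-minute delta. Rat enzyme is preincubated with NADPH and then with compound at ~22 deg C.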
# [18] = qHTS Assay for Modulators of Human Peripheral Myelin Protein 22 (PMP22) Expression/Activity (AID 1967; active = well fitted curve in the direction sought with a large enough effect in the signal ratio; inconclusive = small, poorly fitted or top-dose-only effect, or effect the other way, or a change in a side signal; inactive = no such curve, though single readings can be large or run the other way; the % refers to the signal ratio;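 also: 0% = untreated cells and 100% end not stated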); details: Cell-based PMP22 reporter, dual-color luciferase ratio, mouse Pmp22 promoter in mouse Schwann cells; activity change (ratio): at 115 µM (top of the series), 0% = compound-free control cells
# Outline: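 Mouse MSC80 Schwann cells carrying Pmp22 promoter–green click beetle luciferase plus EF-alpha–red luciferase control, dosed 24 h at 37 °C. Dual-filter luminescence, overlap-corrected; %Activity from green/red ratio normalised to untreated cells, concentration-response curves fitted.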
# [19] = Nrf2 qHTS screen for inhibitors: Validation (AID 493153; active = well fitted inhibition curve with a large enough effect in the main read-out, with a control signal flat, not every such curve was filed as active; inconclusive = small, poorly fitted or top-dose-only effect, or effect the other way, or a change in a side signal; inactive = no such curve, though single readings can be large or run the other way;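 also: A549 cells with ARE-driven firefly luciferase reporter reporting Nrf2 activity; % of control where 0% means no effect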)
# Outline: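 In this counterscreened reporter format, each well gives two signals: CellTiter-Fluor fluorescence for cytotoxicity and ARE-luciferase luminescence for Nrf2 function. A549 ARE_Fluc cells in 5% FBS OPTI-MEM were exposed to compound titrations for 18-24 h.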
# [20] = target: Thioredoxin reductase 1, cytoplasmic (Rattus norvegicus) (UniProt O89049); assay: qHTS Assay for Inhibitors of Mammalian Selenoprotein Thioredoxin Reductase 1 (TrxR1) (AID 488773); details: Potency: inhibition;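 also: drop in NADPH fluorescence over an 8 min run after selenite addition; % is scaled to controls: 0 for no effect and ±100 for the full control effect; nearly all actives have a fitted effect of over 40% in size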
# Outline: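 Inhibition is scored from the loss of NADPH fluorescence between first and last reads of an 8-min kinetic run. Selenite (400 uM) was the substrate, added after 15 min compound preincubation at room temperature.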
# Tags tell the direction and shape of the fitted curve or compound fluorescence and quenching.
# UniProt Q99549, sequence (Q99549 whole entry, looked up): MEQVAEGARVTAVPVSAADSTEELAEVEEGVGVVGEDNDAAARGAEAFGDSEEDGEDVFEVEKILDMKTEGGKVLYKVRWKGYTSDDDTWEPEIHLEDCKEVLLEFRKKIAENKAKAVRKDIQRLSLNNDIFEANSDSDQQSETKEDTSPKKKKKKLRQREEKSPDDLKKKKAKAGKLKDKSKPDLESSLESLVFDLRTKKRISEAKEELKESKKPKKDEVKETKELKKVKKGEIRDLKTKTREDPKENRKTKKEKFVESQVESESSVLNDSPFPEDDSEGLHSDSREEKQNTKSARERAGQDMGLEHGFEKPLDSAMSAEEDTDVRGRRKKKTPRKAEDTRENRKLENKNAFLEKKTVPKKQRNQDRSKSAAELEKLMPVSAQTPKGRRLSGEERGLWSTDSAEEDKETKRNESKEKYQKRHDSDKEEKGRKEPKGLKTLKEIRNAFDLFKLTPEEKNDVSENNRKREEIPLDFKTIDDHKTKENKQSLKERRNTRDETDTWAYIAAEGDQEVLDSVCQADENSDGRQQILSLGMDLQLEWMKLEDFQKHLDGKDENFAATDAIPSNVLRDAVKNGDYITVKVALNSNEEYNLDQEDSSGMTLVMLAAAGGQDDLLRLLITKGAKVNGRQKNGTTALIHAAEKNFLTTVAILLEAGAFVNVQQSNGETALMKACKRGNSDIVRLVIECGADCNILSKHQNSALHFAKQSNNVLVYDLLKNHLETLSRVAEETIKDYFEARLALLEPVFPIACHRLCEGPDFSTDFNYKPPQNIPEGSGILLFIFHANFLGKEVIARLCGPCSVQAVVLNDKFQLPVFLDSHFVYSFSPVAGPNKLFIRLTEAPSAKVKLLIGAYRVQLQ
# UniProt P78324, sequence (P78324 whole entry, looked up, the tested form may be a part): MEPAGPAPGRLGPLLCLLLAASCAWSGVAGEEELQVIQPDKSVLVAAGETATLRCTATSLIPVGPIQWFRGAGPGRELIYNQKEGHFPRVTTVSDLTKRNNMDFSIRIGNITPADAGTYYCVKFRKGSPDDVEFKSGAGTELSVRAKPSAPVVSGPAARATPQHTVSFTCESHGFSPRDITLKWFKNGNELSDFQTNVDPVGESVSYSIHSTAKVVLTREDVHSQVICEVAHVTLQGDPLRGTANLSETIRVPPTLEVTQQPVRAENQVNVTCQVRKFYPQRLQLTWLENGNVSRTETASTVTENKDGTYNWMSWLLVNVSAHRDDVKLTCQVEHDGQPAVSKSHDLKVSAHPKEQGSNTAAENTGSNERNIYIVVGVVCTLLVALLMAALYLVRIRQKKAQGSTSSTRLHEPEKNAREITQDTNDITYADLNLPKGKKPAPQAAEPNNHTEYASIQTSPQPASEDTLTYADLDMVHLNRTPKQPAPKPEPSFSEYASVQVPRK
# UniProt P78324, sequence (Q08722 whole entry, looked up, the tested form may be a part): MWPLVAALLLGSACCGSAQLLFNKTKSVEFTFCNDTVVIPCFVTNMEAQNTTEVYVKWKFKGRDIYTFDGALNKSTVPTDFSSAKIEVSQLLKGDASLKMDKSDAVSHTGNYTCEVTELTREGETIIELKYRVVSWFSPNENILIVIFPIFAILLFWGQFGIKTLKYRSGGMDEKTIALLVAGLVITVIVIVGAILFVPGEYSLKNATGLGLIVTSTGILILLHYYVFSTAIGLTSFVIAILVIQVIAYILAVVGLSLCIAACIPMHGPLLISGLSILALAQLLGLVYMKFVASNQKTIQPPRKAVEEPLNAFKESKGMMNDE
# UniProt Q13526, sequence (Q13526 whole entry, looked up): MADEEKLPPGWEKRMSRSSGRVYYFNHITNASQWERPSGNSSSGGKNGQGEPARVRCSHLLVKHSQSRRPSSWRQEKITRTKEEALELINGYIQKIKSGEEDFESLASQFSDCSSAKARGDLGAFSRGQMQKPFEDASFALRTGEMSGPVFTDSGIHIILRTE
# UniProt P00784, sequence (P00784 whole entry, looked up): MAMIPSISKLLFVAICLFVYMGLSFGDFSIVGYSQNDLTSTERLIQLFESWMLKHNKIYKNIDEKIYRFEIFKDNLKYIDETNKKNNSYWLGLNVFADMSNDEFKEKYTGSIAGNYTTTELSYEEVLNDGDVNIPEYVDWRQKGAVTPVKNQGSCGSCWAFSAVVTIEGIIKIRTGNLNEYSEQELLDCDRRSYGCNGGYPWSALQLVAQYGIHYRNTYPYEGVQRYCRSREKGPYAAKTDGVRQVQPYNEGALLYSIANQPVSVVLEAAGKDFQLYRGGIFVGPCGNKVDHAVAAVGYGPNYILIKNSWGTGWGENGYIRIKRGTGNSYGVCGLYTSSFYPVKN
# UniProt O89049, sequence (O89049 whole entry, looked up): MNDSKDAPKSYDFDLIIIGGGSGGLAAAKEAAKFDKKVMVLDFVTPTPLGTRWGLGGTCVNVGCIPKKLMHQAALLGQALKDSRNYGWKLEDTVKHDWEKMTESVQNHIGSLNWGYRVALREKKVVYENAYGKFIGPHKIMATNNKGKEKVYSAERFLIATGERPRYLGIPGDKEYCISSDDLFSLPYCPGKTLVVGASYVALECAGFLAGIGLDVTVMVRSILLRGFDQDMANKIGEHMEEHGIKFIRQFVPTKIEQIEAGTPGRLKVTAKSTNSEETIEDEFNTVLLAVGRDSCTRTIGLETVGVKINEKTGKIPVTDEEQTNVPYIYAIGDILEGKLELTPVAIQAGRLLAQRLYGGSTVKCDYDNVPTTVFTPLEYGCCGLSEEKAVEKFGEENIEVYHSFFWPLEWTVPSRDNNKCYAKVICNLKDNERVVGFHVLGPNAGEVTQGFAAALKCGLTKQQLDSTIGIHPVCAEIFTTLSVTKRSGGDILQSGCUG
# UniProt Q99828, sequence (Q99828 whole entry, looked up): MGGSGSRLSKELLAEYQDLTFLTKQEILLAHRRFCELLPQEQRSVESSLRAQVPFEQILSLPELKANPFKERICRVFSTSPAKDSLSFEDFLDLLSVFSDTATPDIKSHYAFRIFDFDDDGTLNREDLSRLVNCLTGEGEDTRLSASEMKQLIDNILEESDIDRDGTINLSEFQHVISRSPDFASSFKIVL
# UniProt P21728, sequence (P21728 whole entry, looked up): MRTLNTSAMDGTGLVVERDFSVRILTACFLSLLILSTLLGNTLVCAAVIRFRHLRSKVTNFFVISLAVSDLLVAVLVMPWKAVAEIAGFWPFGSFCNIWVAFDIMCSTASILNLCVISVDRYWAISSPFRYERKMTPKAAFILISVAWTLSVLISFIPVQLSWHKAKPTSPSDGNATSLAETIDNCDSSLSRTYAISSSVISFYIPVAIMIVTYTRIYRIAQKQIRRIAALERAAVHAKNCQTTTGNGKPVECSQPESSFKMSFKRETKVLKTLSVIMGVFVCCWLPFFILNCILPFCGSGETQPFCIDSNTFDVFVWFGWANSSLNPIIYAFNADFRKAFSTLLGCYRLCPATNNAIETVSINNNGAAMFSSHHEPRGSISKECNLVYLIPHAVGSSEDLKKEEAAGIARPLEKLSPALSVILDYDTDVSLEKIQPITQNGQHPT
# UniProt Q8NER1, sequence (Q8NER1 whole entry, looked up): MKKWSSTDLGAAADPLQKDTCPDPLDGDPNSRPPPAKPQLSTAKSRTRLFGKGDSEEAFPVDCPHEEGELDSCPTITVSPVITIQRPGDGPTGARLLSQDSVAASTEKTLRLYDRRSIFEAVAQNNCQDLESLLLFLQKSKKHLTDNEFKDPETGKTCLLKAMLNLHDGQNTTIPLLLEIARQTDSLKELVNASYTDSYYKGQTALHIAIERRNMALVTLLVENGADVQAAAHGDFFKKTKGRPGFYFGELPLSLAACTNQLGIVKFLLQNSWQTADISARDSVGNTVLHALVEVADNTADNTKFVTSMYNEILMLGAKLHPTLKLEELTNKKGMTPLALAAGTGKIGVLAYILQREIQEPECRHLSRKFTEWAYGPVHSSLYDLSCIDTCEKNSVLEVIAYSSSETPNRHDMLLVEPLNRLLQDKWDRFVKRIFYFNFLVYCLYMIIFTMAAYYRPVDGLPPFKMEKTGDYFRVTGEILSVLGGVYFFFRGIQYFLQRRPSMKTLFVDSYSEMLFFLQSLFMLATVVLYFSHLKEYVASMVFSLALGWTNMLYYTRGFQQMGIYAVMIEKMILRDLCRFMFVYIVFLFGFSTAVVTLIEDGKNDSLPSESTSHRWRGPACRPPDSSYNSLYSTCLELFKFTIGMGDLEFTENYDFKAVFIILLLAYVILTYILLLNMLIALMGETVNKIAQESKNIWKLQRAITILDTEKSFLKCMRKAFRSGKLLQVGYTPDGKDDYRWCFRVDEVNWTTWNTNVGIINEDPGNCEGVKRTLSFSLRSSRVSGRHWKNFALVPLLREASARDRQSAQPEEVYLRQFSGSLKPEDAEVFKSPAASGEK
structure (smiles),measurement,setting,value
Fc1ccc(C(OCCCc2cnc[nH]2)c2ccc(F)cc2)cc1,Potency,[1],"inconclusive: 15.8 µM [cytotoxic, side channel, partial curve]"
same,Potency,[2],active: 50.1 µM
same,Potency,[3],inactive
same,Potency,[4],"inconclusive: 1.58 µM [inhibitor, partial curve, poor fit]"
same,Potency,[5],"inconclusive: 35.5 µM [inhibitor, single point]"
CN1CCCC1CCOC(C)(c1ccccc1)c1ccc(Cl)cc1 (centres undefined),Potency,[6],active: 14.7 µM
same,Potency,[2],"inconclusive: 44.7 µM [inhibitor, partial curve]"
same,Potency,[7],"inconclusive: 14.1 µM [activator, single point]"
same,Potency,[8],inactive
same,Potency,[4],"inconclusive: 1.78 µM [inhibitor, partial curve, poor fit]"
Cn1ncc(S(=O)(=O)Cc2ccccc2)c(Br)c1=O,Potency,[6],"inconclusive: 14.7 µM [falling, single point]"
same,Potency,[9],inactive
CCCCCCCCCCCCCCCCCC(=O)NCC(COP(=O)([O-])OCC[N+](C)(C)C)OCC (centres undefined),activity change,[10],inconclusive: 39.5%
same,Potency,[2],"inconclusive: 50.1 µM [inhibitor, partial curve]"
same,Potency,[11],"inconclusive: 4.11 µM [activator, single point]"
same,Potency,[12],"inconclusive: 4.11 µM [activator, full curve]"
same,Potency,[13],"inconclusive: 37.9 µM [falling, single point]"
CCc1ccc2c(-c3cccc(Cl)c3)nc(=O)n(CC)c2n1,activity change,[10],inconclusive: -33%
same,Potency,[8],inconclusive: 16.5 µM [side channel]
same,Potency,[4],inactive
O=c1[nH]c2cc([N+](=O)[O-])c([N+](=O)[O-])cc2[nH]c1=O,Potency,[2],"inconclusive: 22.4 µM [inhibitor, partial curve]"
same,Potency,[8],"inconclusive: 14.7 µM [side channel, falling, partial curve]"
same,Potency,[14],"inconclusive: 31.6 µM [inhibitor, partial curve]"
Cn1c(=O)c2c(nc(/C=C/c3cccc(Cl)c3)n2C)n(C)c1=O,Potency,[15],inactive
same,Potency,[5],active: 3.55 µM
CC(C)C[C@H](NC(=O)C1OC1C(=O)O)C(=O)NCCCCN=C(N)N (some centres undefined),"ratio change, both ways",[16],inactive: -3.41%
C#CCN1C(C)=C(C(=O)OC)C(c2cccc([N+](=O)[O-])c2)C(C(=O)OCC)=C1C (centres undefined),"ratio change, both ways",[16],inconclusive: 7.35%
same,Potency,[17],"inconclusive: 42.3 µM [inhibitor, partial curve, poor fit]"
same,Potency,[11],"inconclusive: 0.411 µM [activator, partial curve, poor fit]"
same,Potency,[9],"inconclusive: 14.6 µM [activator, partial curve]"
NC(=O)C1=CN(C2OC(COP(=O)(O)OP(=O)(O)OC[C@H]3O[C@@H](n4cnc5c(N)ncnc54)[C@H](OP(=O)(O)O)[C@@H]3O)C(O)C2O)C=CC1 (some centres undefined),Potency,[13],active: 5.36 µM
CNc1cc(NS(=O)(=O)c2ccc(N)cc2)nc(NC)n1,Potency,[14],inactive
COc1ccccc1CNCCCCCCNCCCCCCCCNCCCCCCNCc1ccccc1OC,"ratio change, both ways",[16],inconclusive: 45.1% [at 46.1 µM]
same,Potency,[2],active: 50.1 µM
same,Potency,[5],"inconclusive: 11.2 µM [inhibitor, partial curve, poor fit]"
CN(C)CCC(c1ccc(Br)cc1)c1ccccn1 (centres undefined),Potency,[4],"inconclusive: 1.41 µM [inhibitor, partial curve]"
CC1(C)CCC=[N+]1[O-],Potency,[18],inactive
Cc1cc(NC(=O)Nc2ccc3c(ccn3C)c2)sn1,Potency,[1],"inconclusive: 12.6 µM [inhibitor, partial curve]"
same,activity change (ratio),[18],inconclusive: -8.97%
same,activity change,[10],inconclusive: -31.8%
same,Potency,[2],"inconclusive: 56.2 µM [inhibitor, partial curve]"
same,Potency,[3],active: 5.8 µM
CC(=O)/C(C)=N/O,Potency,[13],"inconclusive: 0.0757 µM [falling, full curve, poor fit]"
same,Potency,[5],active: 2 µM
CC(=O)NNC(=O)N1Cc2ccccc2Oc2ccc(Cl)cc21,Potency,[19],inactive
same,Potency,[15],"inconclusive: 15.8 µM [inhibitor, partial curve]"
O=C(O)CC1CCCc2ccccc2C1O (centres undefined),"ratio change, both ways",[16],inactive: -7.09%
same,Potency,[18],inactive
same,Potency,[17],"inconclusive: 8.44 µM [inhibitor, full curve, poor fit]"
C[C@@H](CN1CCC(Cc2ccccc2)CC1)[C@@H](O)c1ccc(O)cc1,Potency,[16],"inconclusive: 11.2 µM [activator, partial curve]"
same,Potency,[18],inactive
CSc1ccccc1N1CCN(CCCCCC(=O)NC2CCCc3ccccc32)CC1 (centres undefined),Potency,[6],"inconclusive: 14.7 µM [falling, single point]"
same,Potency,[20],inactive
O=c1onc2n1-c1cc(Br)ccc1OC2,activity change (ratio),[18],inconclusive: 31.1%
